Test results published in ChEMBL document CHEMBL4888484, “Replenishing the malaria drug discovery pipeline: Screening and hit evaluation of the MMV Hit Generation Library 1 (HGL1) against asexual blood stage Plasmodium falciparum ,using a nano luciferase reporter read-out” (2022).
About 540 (0.36%) of roughly 150,000 compounds showed an effect of 50% or more. Some of the results follow.

Test system: Plasmodium falciparum
Assay: Primary screen in NF54 nanoGlo assay, in single point, at 2uM, 72h; a lower Z score goes with more inhibition
Type: functional, Erythrocyte
Conditions: timepoint 72 hour

| Compound | % Inhibition [%] | Z score |
| --- | --- | --- |
| NS(=O)(=O)N1CCN(Cc2ccn(C3CCCC3)n2)CC1 | 36 | -4.79 |
| Nc1nc(-c2ccc(Cl)cc2Cl)c(-n2cncn2)s1 | -37 | 4.37 |
| Cc1nc(C)c(CNC(=O)NC[C@@H]2COc3ccccc3C2)s1 | -3 | 0.43 |
| Cc1cnc(C(=O)N2CC3CCCCC3C2)cn1 (stereo not drawn) | -10 | 1.19 |
| CO[C@H]1C[C@@H](O)C12CCN(C(=O)C(c1ccccc1)c1ccccc1)CC2 | 5 | -0.64 |
| CNC(=O)[C@@H]1CCCCN1CC(c1ccccc1)c1ccccc1 | 17 | -2.2 |
| O=C(c1ccc(C(F)(F)F)cc1)N1CCN=C1N1CCCC1 | -6 | 0.89 |
| Oc1ccc2ncccc2c1[C@@H](Nc1ccccn1)c1cccc(Cl)c1 | 34 | -3.9 |
| CC(C)C(=O)N1CCC(NC[C@@H](c2ccccc2)N2CCCCCC2)CC1 | -13 | 2.09 |
| Cc1ccc(-c2nc(CNC(=O)C3=NNC(=O)CC3)[nH]c2-c2ccccn2)cc1 | -22 | 3.58 |
| Cn1c(C(=O)Nc2ccc(N3CCOCC3)cc2)cc2c1CCN(Cc1ccccc1)C2 | -7 | 1.24 |
| CCN1C(=O)C2(CCN(S(=O)(=O)c3cc(Cl)ccc3OC)CC2)c2ccccc21 | -9 | 1.37 |
| COc1ccc(Cl)cc1C(C)NC1CCC(=O)N(C)C1 (stereo not drawn) | 5 | -0.98 |
| COCCNc1nc(NCc2ccc(OC)cc2)nc(NCc2ccc(OC)cc2)n1 | -9 | 0.82 |
| O=C(C1CCCCC1)N1C[C@@H]2Oc3ncccc3S(=O)(=O)N[C@@H]2C1 | 5 | -0.96 |
| c1ccc(OCc2n[nH]c3c2CN(Cc2nc4c(s2)CCCC4)CC3)cc1 | 1 | -0.12 |
| Cc1cc2n(n1)CCCN(C(=O)Nc1ccc(S(N)(=O)=O)cc1)C2 | -9 | 1.74 |
| Cc1cc2cccc(NC(=O)NCCS(=O)(=O)N3CCCC3)c2o1 | 6 | -0.82 |
| CCCc1cc(C(=O)NC2CC(C(=O)O)c3ccccc32)[nH]n1 (stereo not drawn) | -8 | 1.55 |
| CC(=O)N1CCn2c(nnc2[C@@H]2CCCN2Cc2cc(Cl)ccc2F)C1 | -10 | 1.45 |
| Cc1cc(=O)n2nc(Oc3ccc(F)c(F)c3)sc2n1 | 12 | -2.22 |

| Compound | % Inhibition [%] | Z score |
| --- | --- | --- |
| Cc1ccc(CN2CCC[C@H](CCNC(=O)C(F)F)C2)cc1C | -9 | 1.26 |
| O=C(c1ncc(-c2ccccc2)o1)N1CCN(c2ncccn2)CC1 | 16 | -2.17 |
| Cn1nc(-c2ccccc2)c(-c2ccccc2)nc1=O | -4 | 0.57 |
| COc1ccc(CC(N)=NO[C@H]2CCOC2)cc1 | -3 | 0.53 |
| CC1(c2nsc(NC(=O)[C@@H]3CCCN3c3ccc(C#N)cc3)n2)CC1 | -12 | 1.23 |
| Cc1ncc(CN2CCN(Cc3cccs3)[C@@H](CCO)C2)s1 | -5 | 0.8 |
| Cc1nscc1NC(=O)OC(C)(C)C | 16 | -1.84 |
| O=C(c1ccc(Oc2nccs2)cc1)N1CCC(N2C(=O)COC2=O)CC1 | -1 | 0.1 |
| COc1ccc(N(C)S(=O)(=O)c2ccc3c(c2)CCN3C(=O)C2CCC2)cc1 | 33 | -1.02 |
| COc1ccccc1CNC(=O)c1cccc(-n2cnc3cccnc32)c1C | -2 | 0.36 |
| O=C1CC[C@@]2(CCCN(C3Cc4ccccc4C3)C2)CN1CCc1c[nH]cn1 | -14 | 1.31 |
| Cc1ccc(N2C(=O)C3C(C)NC4(C(=O)N(CC(=O)Nc5ccccc5)c5ccccc54)C3C2=O)cc1 (stereo not drawn) | -4 | 0.51 |
| FC(F)c1nnc(N2CCCC3(CCCCCC3)C2)s1 | -7 | 0.63 |
| O=C(O)c1ccc(CN2C[C@H]3CCN(Cc4ccccc4)[C@H]3C2)cc1 | -2 | 0.45 |
| CCN(Cc1cccc(C(=O)Nc2c(C)nn(C)c2C)c1)C1CCOCC1 | 3 | -0.42 |
| CC(C)(C)OC(=O)N1CC2Cc3nc(O)ccc3C(C2)C1 (stereo not drawn) | -12 | 2.19 |
| CO[C@@]12CC[C@H](Oc3ccccn3)C[C@@H]1N(C(=O)c1c[nH]c(=O)[nH]1)CC2 | -5 | 0.86 |
| CC(C)Cn1c(=O)c2c(ncn2CC(=O)c2ccc(C#N)cc2)n(-c2ccc(F)cc2)c1=O | -13 | 2.55 |
| O=C1C[C@H](c2ccc(Cl)cc2Cl)c2cnn(Cc3ccc4c(c3)OCO4)c2N1 | -16 | 2.03 |
| CCN(CC(F)(F)F)C(=O)C[C@H](C)n1ccnc1C | -11 | 1.82 |
| O=C(Nc1ccc(F)cc1)c1n[nH]c2c1CCc1ccccc1-2 | -20 | 1.76 |

| Compound | % Inhibition [%] | Z score |
| --- | --- | --- |
| CCOc1cccc(CN(C)[C@H](C)C(N)=O)n1 | 1 | -0.16 |
| C[C@H](C(=O)Nc1ccccc1C(F)(F)F)C1CCN(C(=O)Nc2ccc(F)cc2)CC1 | -9 | 1.22 |
| O=C(NCc1cnn(-c2cccc(F)c2)c1)[C@H]1CCCN(Cc2ccco2)C1 | -13 | 1.16 |
| C(=C\c1cnc2nn[nH]c2c1)/c1ccccc1 | 3 | -0.53 |
| C[C@@]1(Cc2ccc(F)cc2)NC(=O)N(OCC2CCC2)C1=O | -12 | 1.57 |
| COc1ccc(C(=O)N2CCC([C@H](CC(=O)O)c3ccccc3)CC2)cn1 | 30 | -3.44 |
| Nc1ncccc1OCC(=O)Nc1ccccc1F | -8 | 1.03 |
| CC(C)(C)n1nnc(CN2CCC[C@H]2c2ncn[nH]2)n1 | -13 | 1.27 |
| C=CCC(=O)N1CC[C@@]2(CCCN(Cc3cccc(F)c3F)C2=O)C1 | -6 | 0.81 |
| O=C(c1cc(F)cc(F)c1)N1C[C@@H]2CC[C@H]1CN(Cc1ccccn1)C2 | -19 | 1.91 |
| C[C@]1(CO)CN(Cc2ccc3ncccc3c2)C[C@@]1(C)CO | 17 | -2.16 |
| CCCc1cc(CN(C)[C@@H]2COc3c(cccc3OC)C2)n[nH]1 | -9 | 1.82 |
| CCN(CC)C(=O)c1ccc2c(c1)N(CC(=O)N1CCC(Cc3ccccc3)CC1)C(=O)CO2 | -6 | 0.84 |
| O=C(c1cnccn1)N(CC1CCN(Cc2ccccc2F)CC1)C[C@H]1CCCO1 | -5 | 0.7 |
| COc1ccc(CCOc2nc(-c3cccs3)n(-c3ccc(NC(=O)c4ccc(OC)cc4)cc3)n2)cc1 | 4 | -0.64 |
| Cc1ccc(-c2nc3cc(C(=O)N4CCC(CC(=O)Nc5cc(C)ccc5C)CC4)ccc3o2)cc1 | -17 | 2.05 |
| CC1CCN2C(=O)N(c3ccncc3)C(=O)C2C1 (stereo not drawn) | 27 | -3.05 |
| Cn1ncc2c(NCc3cc4ccccc4[nH]3)nc(-c3ccccn3)nc21 | -3 | 0.55 |
| O=C(C[C@H](c1ccc(Cl)c(C(F)(F)F)c1)c1c[nH]c2ccccc12)N1CCOCC1 | -6 | 0.69 |
| CCCC(CCC)C(=O)Nc1cccc([C@H](C)O)c1 | -6 | 1.14 |
| CN(CCc1noc(C2CC2)n1)C(=O)c1nc2ccccc2[nH]c1=O | -13 | 2.28 |

| Compound | % Inhibition [%] | Z score |
| --- | --- | --- |
| Clc1ccc(Cn2c(-c3ccccc3)cn3c4ccccc4nc23)cc1 | 6 | -0.93 |
| c1cnn(CCNCc2nc(C3CC3)no2)c1 | 7 | -1 |
| Cc1ccn2ncnc2c1NS(=O)(=O)c1ccc2c(c1)CCCC2 | 16 | -1.82 |
| O=S(=O)(N[C@H]1CCc2ncccc2C1)c1cnn2c1OCCC2 | -7 | 1.4 |
| CCOC(=O)c1c(C)c(C(=O)N2CCN(c3ccccc3Cl)CC2)c(C)n1C | -11 | 1.37 |
| Cc1nn(C[C@H](O)COCc2ccccc2)cc1Br | -1 | 0.16 |
| COc1cccc(CN(C)S(=O)(=O)Cc2ccc(C)cc2F)n1 | -10 | 1.92 |
| CCC[C@H]1COCCN1C(=O)Nc1cc(N2CCCC2=O)ccc1C | -13 | 2.48 |
| Cc1nc(CCCC(=O)N2CC3(CCC3)[C@@H]2C(C)C)cs1 | -10 | 2.01 |
| Cn1cncc1COc1ccc(F)cc1 | 3 | -0.27 |
| CCCC[C@@H](CC(=O)O)NC(=O)c1cc(F)ccc1F | -12 | 2.32 |
| c1ccc(-n2ncc3c2-c2[nH]c4ccccc4c2CC3)cc1 | 4 | -0.77 |
| Cc1cccc(Cn2nc(-c3ccncc3)nc2COC[C@H]2CCCO2)c1 | -4 | 0.73 |
| CO[C@H]1CCN(c2cc3nncn3c(C)n2)CC1(C)C | -2 | 0.43 |
| CC(C)CCN1C(=O)C2(CCN(C(=O)[C@H](C)n3cccn3)CC2)Nc2ccccc21 | 14 | -1.98 |
| CC1CCC(C(N)=O)CN1c1nnc(-c2ccccn2)s1 (stereo not drawn) | -12 | 1.3 |
| COc1ccc(C#CC(=O)NC[C@H]2CCCN(C(C)=O)C2)cc1 | -8 | 1.17 |
| CNc1snc(C)c1C(=O)N1CCCC1 | -19 | 1.79 |
| O=S(=O)(C1CC1)N1CC(CC(F)F)C1 | -17 | 1.94 |
| CO[C@@]12CC[C@@H](Oc3ccccn3)C[C@@H]1N(C(=O)c1cccc(C#N)c1)CC2 | -10 | 0.94 |
| CCOCCOc1ccc(Cl)cc1N | 2 | -0.34 |
